From JP2017057201A (dated 2017) come the findings set out here.

In experiment [1] the target is T1, 組み換えヒトIL−17A (recombinant human IL-17A) (human, UniProt Q16552 20-155, limits assumed).
T1 construct: also called 可溶性IL−17A; ビオチニル化IL−17A (R&D 317-ILB)
T1 sequence: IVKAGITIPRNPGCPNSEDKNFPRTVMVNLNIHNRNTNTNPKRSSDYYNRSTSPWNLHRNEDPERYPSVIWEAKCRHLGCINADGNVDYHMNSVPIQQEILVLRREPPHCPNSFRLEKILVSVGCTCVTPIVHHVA
Put plainly: ELISA; recombinant human IL-17A (1 ug/mL) coated, goat anti-human-HRP detection. In general terms: An ELISA detects its analyte on a solid surface through an enzyme-linked reagent.

In experiment [2] the target is T2, グリコシル化ヒトIL−17A (glycosylated human IL-17A, made in-house in HEK EBNA cells) (human, UniProt Q16552 24-155, glycosylated (sites not given); biotinylated with NHS-PEO4-biotin in the lysate ELISA).
T2 sequence: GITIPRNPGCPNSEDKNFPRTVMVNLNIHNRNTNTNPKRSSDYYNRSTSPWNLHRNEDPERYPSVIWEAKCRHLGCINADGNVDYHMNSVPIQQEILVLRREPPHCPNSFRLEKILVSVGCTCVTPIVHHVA
Briefly: cell-based or functional assay.

B1: COVA804 (bispecific antibody, human IgG1, kappa)
heavy: QVQLQESGPGLVRPSQTLSLTCTVSGYSITSDHAWSWVRQPPGRGLEWIGYISYSGITTYNPSLKSRVTMLRDTSKNQFSLRLSSVTAADTAVYYCARSLARTTAMDYWGQGSLVTVSS[human IgG1 constant region not given here]
light: DIQMTQSPSSLSASVGDRVTITCRASQDISSYLNWYQQKPGKAPKLLIYYTSRLHSGVPSRFSGSGSGTDFTFTISSLQPEDIATYYCQQGNTLPYTFGQGTKVEIKRTVAAPSVFIFPPSDEQLKSGTASVVCLLNNFYPREAKVQWKVDNALQSGNSQESVTEQDSKDSTYSLSSTLTLSKADYEKHKVYACEVTHQGLSSPVTKSFNRGECGGGGSGGGGSGGGGSGVTLFVALYDYSARGQLDLSFHKGEKFQILSTHEYEDWWEARSLTTGETGYIPSNYVAPVDSIQ
notes: also called FynomAb
As a reminder, the EC50 is the concentration giving half of the maximal effect. Consider B1, for which, in experiment [1], the EC50 was determined as 1.02 nM.

B2: COVA806 (bispecific antibody, human IgG1, kappa)
heavy: QVQLQESGPGLVRPSQTLSLTCTVSGYSITSDHAWSWVRQPPGRGLEWIGYISYSGITTYNPSLKSRVTMLRDTSKNQFSLRLSSVTAADTAVYYCARSLARTTAMDYWGQGSLVTVSS[human IgG1 constant region not given here]
light: DIQMTQSPSSLSASVGDRVTITCRASQDISSYLNWYQQKPGKAPKLLIYYTSRLHSGVPSRFSGSGSGTDFTFTISSLQPEDIATYYCQQGNTLPYTFGQGTKVEIKRTVAAPSVFIFPPSDEQLKSGTASVVCLLNNFYPREAKVQWKVDNALQSGNSQESVTEQDSKDSTYSLSSTLTLSKADYEKHKVYACEVTHQGLSSPVTKSFNRGECGGGGSGGGGSGGGGSGVTLFVALYDYESVSWSDLSFHKGEKFQILSTHEYEDWWEARSLTTGETGYIPSNYVAPVDSIQ
notes: also called FynomAb
In the case of B2, the EC50 in experiment [1] was 0.98 nM.

B3: 11L11-A09 (designed binder, not shown: small tags and cut ends)
chain: GVTLFVALYDYSRKSNLDLSFHKGEKFQILSTHEYEDWWEARSLTTGETGYIPSNYVAPVDSIQ
B3: the “IC50; normal human dermal fibroblasts stimulated with IL-17A/TNFα: IL-6 in supernatant (ELISA)” value in experiment [2] was 66 nM.
